Read counts are not given, so values of variants with three or more changes are uncertain.
B1: LINE1-mini (parent)
chain: GGCAGAGCUCAACACAGCGUGGCAAAGUGGCUGUGGCUAGACUGCC

Variants of: B1
Test: self-cleavage, relative activity (ratio to wild type); higher = more cleavage; in vitro, sequencing; the parent is a self-cleaving ribozyme

| Variant | self-cleavage |
| --- | --- |
| C18U C31A U32G | 0.03 |
| C18U C31G C37A | 0.06 |
| C18U C31G U43A | 0.12 |
| C18U C31U U32A | 0.12 |
| C18U C37U U38C G40U C42A | 0.04 |
| C18U C42U G44A C46A | 0.17 |
| C18U C45A C46U | 0.08 |
| C18U G19A C31A C42G | 0.02 |
| C18U G19A C37G | 0.05 |
| C18U G19A C45G | 0.09 |
| C18U G19A G21A G27U G29C U32A | 0.34 |
| C18U G19A G21C | 0.43 |
| C18U G19A G22C A41C | 0.03 |
| C18U G19A G29C | 0.19 |
| C18U G19A U32G | 0.04 |
| C18U G19C G30U A39G | 0.01 |
| C18U G19U C23U G27U | 1.44 |
| C18U G19U G22U C23G U34A C46G | 0.01 |
| C18U G19U G27A | 0.64 |
| C18U G19U G30A C37G | 0.03 |
| C18U G19U U32G A39C | 0.01 |
| C18U G21A C42A | 0.09 |
| C18U G21A C45U | 0.39 |
| C18U G21A G22U G36U | 0.04 |

| Variant | self-cleavage |
| --- | --- |
| C18U G21A G30U C31U G40U | 0.01 |
| C18U G21A G33A G40U G44U | 0.03 |
| C18U G21A U32G G40A | 0.03 |
| C18U G21C A24U U28C | 0.46 |
| C18U G21C G27A | 0.56 |
| C18U G21C G29C C31U | 0.48 |
| C18U G21C G40C | 0.04 |
| C18U G21U A39C C45A | 0.06 |
| C18U G21U A39G | 0.08 |
| C18U G21U C31A | 0.09 |
| C18U G21U C37U | 0.06 |
| C18U G21U G27U | 0.72 |
| C18U G21U G29U G35A | 0.12 |
| C18U G22A G29U C46U | 0.7 |
| C18U G22A G35A | 0.07 |
| C18U G22C A39C C46U | 0.15 |
| C18U G22C C45A | 0.22 |
| C18U G22C G27A G30C | 1.16 |
| C18U G22C G29U G40A | 0.19 |
| C18U G22C G33C G36C | 0.02 |
| C18U G22C G35C | 0 |
| C18U G22C U38C C45U | 0.03 |
| C18U G22U C31G G35A C37G | 0.01 |
| C18U G22U U32A | 0.03 |

| Variant | self-cleavage |
| --- | --- |
| C18U G27A A39U | 1.42 |
| C18U G27A G40U C42U | 0.05 |
| C18U G27C C45G | 0.37 |
| C18U G27C G29A C31U | 0.02 |
| C18U G27C G33A | 0.08 |
| C18U G27C U38C C45U | 0.08 |
| C18U G27U A39U C46U | 1.37 |
| C18U G27U G29U G33C C37G | 0.07 |
| C18U G27U G30U C45G | 0.08 |
| C18U G27U U34G | 0.1 |
| C18U G29A C46A | 1.13 |
| C18U G29C G30A | 0.41 |
| C18U G29C G33A | 0.06 |
| C18U G29C G40A G44U | 0.03 |
| C18U G29C U34G C37A C42U U43A G44U C45G | 0.01 |
| C18U G29U G30C C45U | 0.36 |
| C18U G29U G33A | 0.09 |
| C18U G29U G36A G40A | 0.07 |
| C18U G29U U38A | 0.1 |
| C18U G29U U38C | 0.68 |
| C18U G30A G35A C37G | 0.07 |
| C18U G30C C31U | 0.04 |
| C18U G30C C46U | 0.11 |
| C18U G30C G35U | 0.04 |

| Variant | self-cleavage |
| --- | --- |
| C18U G33A G35C A39G | 0.02 |
| C18U G33C A41G | 0.03 |
| C18U G33U U34G A41G | 0 |
| C18U G35A C42U | 0.06 |
| C18U G35C C42A C46G | 0 |
| C18U G35U C45A | 0.04 |
| C18U G35U G44U | 0.13 |
| C18U G36C A39G C42A C45G | 0.02 |
| C18U G36C G44A | 0.06 |
| C18U G36C G44U | 0.07 |
| C18U G36U G40U A41G | 0.14 |
| C18U G36U G44U | 0.02 |
| C18U G36U U43A | 0.02 |
| C18U G40A A41U | 0.2 |
| C18U G40C C46A | 0.04 |
| C18U G40U C45G | 0.02 |
| C18U G44C C46U | 0.06 |
| C18U G44U C46A | 0.11 |
| C18U U20A A24C G40C C46A | 0.13 |
| C18U U20A C31A U43A | 0.05 |
| C18U U20A G27U G30A | 0.69 |
| C18U U20A G33C | 0 |
| C18U U20A G33U G36U A39U | 0.01 |
| C18U U20A G36U G40U | 0.38 |

| Variant | self-cleavage |
| --- | --- |
| C18U U20C A41C | 0.05 |
| C18U U20C A41G | 0.2 |
| C18U U20C G21A U32C | 0.2 |
| C18U U20G G22U | 0.79 |
| C18U U20G G29U | 0.14 |
| C18U U20G G33U | 0.02 |
| C18U U20G G36U A41G G44U | 0.01 |
| C18U U28A C31G U34C C46G | 0.01 |
| C18U U28A C31U U34G | 0.02 |
| C18U U28A C42A | 0.03 |
| C18U U28A G29A C31A | 0.1 |
| C18U U28C U32G | 0.07 |
| C18U U32A G33C A41G | 0.1 |
| C18U U32C G33A G36C | 0.01 |
| C18U U32C G33U | 0.02 |
| C18U U32C G36C | 0.07 |
| C18U U32C U43A | 0.03 |
| C18U U34A A41U C42A C46U | 0.07 |
| C18U U34A C45U | 0.05 |
| C18U U34C A41U | 0.19 |
| C18U U34C G44C | 0.03 |
| C18U U34G A41C C46A | 0.01 |
| C18U U43G G44C | 0.03 |
| G19A A24C C31U | 0.56 |

| Variant | self-cleavage |
| --- | --- |
| G19A A24C G29C | 0.56 |
| G19A A24G A25U | 1.88 |
| G19A A24G G27U G35U C42U | 0.03 |
| G19A A24G G35C C46U | 0.07 |
| G19A A24G U28G C42U | 0.1 |
| G19A A24U G27A G30A | 0.31 |
| G19A A24U G30U | 1.53 |
| G19A A25C U43A G44A | 0.03 |
| G19A A25G C31A U32A U34G C42G | 0.03 |
| G19A A25U G33A | 0.03 |
| G19A A26C G33U | 0.27 |
| G19A A26C G40A | 0.16 |
| G19A A26G G30A | 1.83 |
| G19A A26U C46U | 1.09 |
| G19A A26U G33U | 0.11 |
| G19A A26U G35A A41C C46U | 0.09 |
| G19A A39C C45G | 0.06 |
| G19A A39G C46U | 0.03 |
| G19A A39G G40C | 0.05 |
| G19A A41C G44U | 0.04 |
| G19A A41U C42U | 0.06 |
| G19A C23A C31G | 0.1 |
| G19A C23A G29U | 0.21 |
| G19A C23A G33A | 0.2 |

| Variant | self-cleavage |
| --- | --- |
| G19A C23A U28A G30U G40U C42U | 0.08 |
| G19A C23G A25C U32G C45U | 0.05 |
| G19A C23G C31A C45U | 0.27 |
| G19A C23G U28A | 0.3 |
| G19A C23U G40U | 0.19 |
| G19A C23U U34A G40A A41U | 0.07 |
| G19A C23U U38C A41G | 0.28 |
| G19A C31A C42U | 0.06 |
| G19A C31A C42U C46A | 0.03 |
| G19A C31A G35A U43G C45U | 0.02 |
| G19A C31G C46A | 0.09 |
| G19A C31U G36A A39C | 0.07 |
| G19A C37A G44U | 0.1 |
| G19A C45A C46G | 0.12 |
| G19A G21A A25G | 1.85 |
| G19A G21A C37G C42A | 0.02 |
| G19A G21A G33A G35A G36C | 0.22 |
| G19A G21C A25G G36A | 0.05 |
| G19A G21C A25U G30A | 1.2 |
| G19A G21C G22C A41U U43A | 0.02 |
| G19A G21C G22U G30C | 1.08 |
| G19A G21C G27A | 0.13 |
| G19A G21C G30U U32G G35U | 0.03 |

From the RNAGym collection of RNA variant scans (doi:10.7554/elife.90254)
